According to the supplement of paper PMC3334620:
The full ranking holds about 33,000 sequences; the median of “E-score (-0.5 to 0.5)” is about -0.012, and the highest 2% start at about 0.27. The list shows a part of the results.

molecular target: T1, Vhr1 (UniProt P40522); assay: PBM E-score (8-mer binding enrichment) (E-score (-0.5 to 0.5)); higher = stronger / more preferred TF binding; most listed sequences are background and not binding sites; conditions: protein concentration: 200 nM; construct: GST-full length
T1 sequence: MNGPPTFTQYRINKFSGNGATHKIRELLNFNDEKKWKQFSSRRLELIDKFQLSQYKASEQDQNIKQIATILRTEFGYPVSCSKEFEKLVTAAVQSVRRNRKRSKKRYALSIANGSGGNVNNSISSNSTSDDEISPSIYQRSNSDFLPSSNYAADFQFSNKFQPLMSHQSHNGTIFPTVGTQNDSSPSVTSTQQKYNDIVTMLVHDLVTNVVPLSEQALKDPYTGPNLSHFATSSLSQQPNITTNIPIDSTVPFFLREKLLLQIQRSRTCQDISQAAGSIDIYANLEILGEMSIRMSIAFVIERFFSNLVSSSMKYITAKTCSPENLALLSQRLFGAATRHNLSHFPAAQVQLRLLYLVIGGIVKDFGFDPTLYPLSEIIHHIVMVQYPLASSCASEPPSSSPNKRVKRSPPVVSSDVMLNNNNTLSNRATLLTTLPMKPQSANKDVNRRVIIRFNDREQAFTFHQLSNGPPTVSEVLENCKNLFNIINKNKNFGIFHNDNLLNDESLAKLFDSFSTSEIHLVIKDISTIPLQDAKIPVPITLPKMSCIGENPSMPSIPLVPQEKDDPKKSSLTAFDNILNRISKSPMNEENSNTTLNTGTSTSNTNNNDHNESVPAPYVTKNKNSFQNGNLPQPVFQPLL
Procedure, shortened: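 PURExpress in vitro transcription/translation supplied GST-tagged yeast transcription factors, either full-length or DNA-binding domain. Applied at about 100-200 nM to universal all-10-mer Agilent arrays double-stranded by primer extension, the bound protein was detected with fluorescent anti-GST. E-scores, modified Wilcoxon-Mann-Whitney statistics, were given by the Universal PBM Analysis Suite to ungapped eight-base words pooled with their reverse complements after masliner normalisation.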

Sequence	PBM E-score
CGTTTGAA	-0.141
CGTACGAG	-0.113
GCGTGAAC	-0.205
AAGGTGGC	-0.0942
CTATGAAG	-0.17
ATGCGCAT	0.173
CGATGAGC	0.182
AATAGTAC	0.0635
ATCGGGCG	-0.179
CGGTTCAA	0.0706
GGGGTAAC	-0.0637
AGCGTGGA	-0.161
ATTGCTAG	-0.212
ACAGGCTC	0.0699
GGAGCTCA	-0.197
CACAGCCG	0.281
AGTCCTTA	-0.0339
CCGTTAAA	-0.141
CTCAGAAC	0.0205
AACATCGA	0.114
GCCAGGGA	-0.0435
ATCACAAA	0.0164
AGAGAACG	-0.138
ATGTTTAA	-0.00863
AGAAGTCA	0.27

Sequence	PBM E-score
ATACTGTC	0.137
CTCCTGCA	-0.0766
AGGCGCGC	-0.0286
CATCCGAG	0.15
CGTGTTAA	-0.0374
GGCACACA	0.156
GCTTTCAA	-0.145
CGTGCCAC	-0.136
CGACAGAA	0.00139
ACAAAGGG	-0.123
CGGCTACG	-0.0504
GAGTCTAA	-0.185
ATGTACAG	0.061
CAATTCGA	-0.284
GCTTATCC	0.0124
CGACGTAG	-0.267
CAGTCCAC	0.0259
CCAGGTAG	0.0644
ATCAGGAT	0.146
CTTCAAAG	-0.278
ACCGTACG	-0.23
GGATCGAC	0.081
ACAACCCT	0.00715
ATTTGAAA	-0.182
ACATCAAA	-0.0469

Sequence	PBM E-score
CCAAAGGA	-0.185
ATGTCCAG	-0.098
AGAGATGC	-0.107
ATCCGGAT	0.131
ATCCGGTA	0.0588
AGAATTTC	-0.195
AGTTACCC	-0.0374
GCCAATGA	0.0656
GACGCTGC	-0.344
ACTCAACA	0.289
GGACCGCA	0.0275
CGTGAGGA	-0.0762
AGACGCAG	0.0706
CTTACCGC	0.109
CTACCAAC	-0.0255
ACCCTAGA	0.0664
ACTAAAGA	-0.158
CAGTTTTA	-0.0945
TATAAGCA	0.00418
GTACCTGA	0.19
AAGCACTG	0.0811
CAAGGCAC	-0.0306
GTAGTTCA	-0.166
CCCCGGGC	-0.00428
CTGTGGAC	0.0543

Sequence	PBM E-score
GAGGACTC	0.132
CCGTTTGC	-0.183
AACTCCTA	0.017
AGATATTG	0.165
TGACGCAA	-0.142
AACTGCAT	0.176
CACCGGCG	0.154
AATACTGT	0.108
AACCTGAT	0.17
CCAGCTTA	-0.0602
AATATAAG	0.2
GGCAGAGA	-0.108
AGTGGGGG	-0.308
AGAAGTTG	-0.226
ATGGAGCC	-0.0157
TAATGTGA	0.0633
ACGAATCA	0.336
CGGCCATC	-0.177
AATATGCT	-0.0531
CAATCCTC	0.0047
CGAATAAA	-0.114
CGAGGCAA	0.0337
TCACTCGA	-0.0792
CAGACACA	0.207
AGTTGCTA	0.125

Sequence	PBM E-score
CTAGGGTC	-0.266
CACGGGCG	0.131
AGGCACAG	-0.0624
ATCGGTAA	0.0902
AGCCTTGA	-0.116
ACAAAGAA	-0.116
GAATAAGC	-0.0432
GATCGGAA	-0.121
ATTAACTG	0.224
GATAATGC	0.114
GTCTCCTA	-0.186
CTGAGGCC	-0.134
TGCTAGAA	-0.167
AACAGCGT	-0.0999
CAAACCCC	-0.132
CGTGACGC	-0.144
AATCAGCT	0.199
AGTGTTGG	0.107
CGTTGTTA	-0.118
GAGGCGCC	-0.106
CGAGTACG	0.0468
CAACTACG	0.0145
TAGGAAGA	-0.132
CACCCCAC	0.258
ACCAAGGT	-0.0495

Sequence	PBM E-score
TCTGTAAA	-0.0857
ACCATCCT	0.0534
AAATATCG	0.0313
CGCTGGGA	-0.0413
AGACGGGC	0.00874
AAGTCTCT	-0.338
ATCTACAG	0.0297
CAATGTGA	0.106
GAGCTCAC	0.102
GCTGGCCA	-0.0437
CCTACTTA	-0.0958
ACAGACAA	0.185
CGCACGCA	-0.00175
CAGGGACA	-0.0096
GTATTTCA	-0.205
AGCTCGGA	-0.107
ACGGATTC	0.0689
TATGCGGA	0.0534
TACCCCTA	-0.0556
TAGATCTA	-0.0662
ATATCAAA	0.061
AGCCGTTC	-0.109
CGCAAGCG	0.185
GGTCGGAC	0.0737
AGTGTAGA	0.121

Sequence	PBM E-score
GACAGAGC	-0.0414
AACTGGGA	-0.216
GCTACCCA	0.0505
AAAAAGGG	-0.0897
AGGGAAAA	-0.139
AGAGGGTC	-0.287
CTGCATTC	0.0926
CAACACAC	0.268
AAGTCGTC	-0.00836
ATGATAAA	0.093
ATATACGG	-0.0378
CCCCAAAA	-0.0927
CATCTAGG	0.00943
CTTCGTAA	-0.218
CCTAATAA	-0.208
ATAAGCCC	-0.167
GGATACGA	-0.0506
ACTCGATG	0.164
CAGGCCTG	-0.0801
CGCAGGGA	-0.136
CCTCAGGA	-0.0996
AAAACCCA	-0.0113
